Laboratory results reported in the supplement of paper PMC11417369.
The other results are listed elsewhere or left out.

Tested on: PfHDP1 homeodomain (GST-tagged)
Assay: gcPBM binding intensity (ln(normalized median fluorescence intensity)); higher = stronger DNA binding
How it was run: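 Each value is the highest Masliner-normalised natural-log median intensity across replicate spots of either orientation of a probe. The probes were primer-extended double-stranded 36-bp intergenic genomic sequences on an Agilent 4 × 180k array, alongside negative controls, exposed for 1 h to GST-tagged P. falciparum DNA-binding domains expressed in E. coli. Bound protein was picked up with Alexa488 anti-GST antibody and scanned at 488 nm.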

Compared with “TAATTATATGTATACACACACATACATTTACATAAC [CACACA_site3238]”, “TTAATTTCTATATACGCATGTATGAATAAGATATTG [TGCATGCA_site202]” is lower in “gcPBM binding intensity (ln)” value: 7.03 for the first, 6.18 for the second.

Compared with “ATTTTTTTATAAGAAAATTTCTAACGTTAAAAAAAA [CACACA_negctrl_site1367]”, “CAAACAAACAAATATACACACTTTTGTATAAAGTAA [CACACA_site5860]” is higher in “gcPBM binding intensity (ln)” value: 6.33 for the first, 6.35 for the second.

Going from “TATAATTATATATATAGTACAGATTTGTTATGTTTA [XGTACX_site7724]” to “AGCTCTTGTCATTTTGCACACACACCCGTATAGGTT [CACACA_site3056]”, the “gcPBM binding intensity (ln)” value rises from 6.02 to 10.3.

Compared with “TCTTTTTTTTTTAAACGTACATTGCATTATCACGTA [XGTACX_site6873]”, “ATCCATTATTTTTGTTGTACGGGTAACTTTAAAAAG [XGTACX_site2226]” is lower in “gcPBM binding intensity (ln)” value: 6.87 for the first, 6.8 for the second.

Going from “AAAAGGGAAATAAAATAAAAAAAGAAACATATATAG [CACACA_negctrl_site455]” to “GATTCTTCACCGTACTCACACATATATATATATATA [CACACA_site5665]”, the “gcPBM binding intensity (ln)” value rises from 6.69 to 9.36.

Going from TATATATATATAATAGTGCATAAATAAATATATAAA to “TATCATTTCATATCAAGTACAAACATTTTACATATA [XGTACX_site5307]”, the “gcPBM binding intensity (ln)” value falls from 9 to 6.45.

First: TTTTAATTAAGACACACACACACATATAAATATGTA [CACACA_site7144]
Second: ATAATAATATATATTGTACACACAAAATGGGAAAAA [CACACA_site8568]
The “gcPBM binding intensity (ln)” value of the first is lower: 6.69 for the first, 7.2 for the second.

First: TGAAAAAGGAAAAAAAAAAAAAAAAAAAAAACGAAA [GTGCAC_negctrl_site555]
Second: TATTTATTATTAAGATGTACATAAAACACTGAATAA [XGTACX_site4246]
The “gcPBM binding intensity (ln)” value of the first is lower: 5.92 for the first, 6.28 for the second.

First: GACCATATGAATAATGCACACGTTTTAAAATATTAA [CACACA_site5312]
Second: ATTAAGACACATTGCACACGTGCACCCATAGAAAAA [CACACA_site408]
The “gcPBM binding intensity (ln)” value of the first is lower: 10.2 for the first, 10.5 for the second.

Going from “AACTATAAATATAAATGTACACATATGTAATATATA [XGTACX_site6085]” to “CTTTTAAATTATTTTTGTACATAATTATATATATAT [XGTACX_site4128]”, the “gcPBM binding intensity (ln)” value rises from 6.57 to 8.27.

Going from “TACTGTTTAAAATATAAACACACATTGTTTGCTTTA [CACACA_site8358]” to “AAAAGGAAAATTTTCTTAGTAACTGCATTAAGAGAT [GTGCAC_negctrl_site675]”, the “gcPBM binding intensity (ln)” value rises from 6.31 to 6.67.

Compared with “TAAAAGTTATAAGAGTGTACGTATATTTATATATCA [XGTACX_site2972]”, “TGAAAAATTACAAAAATAATAAAATGAAATAATAAA [GTGCAC_negctrl_site53]” is higher in “gcPBM binding intensity (ln)” value: 6.25 for the first, 6.51 for the second.

Compared with “TTATTATATTCTCCTTCACACACAAAAATATTTCAT [CACACA_site8738]”, “TTTTAATAACCAATCCGTACATATAATCTTTATATT [XGTACX_site536]” is lower in “gcPBM binding intensity (ln)” value: 6.69 for the first, 6.21 for the second.

First: TGGAAAAATAGGCACACACACATATATACATATATA [CACACA_site1297]
Second: AGGACTAATATTTGAACACACATATAACATATACAT [CACACA_site7803]
The “gcPBM binding intensity (ln)” value of the first is higher: 6.88 for the first, 6.56 for the second.

First: TAAAAAACTTCGTGTTCACACATGTACTATATTATT [CACACA_site4796]
Second: TTTTTTTTTTTTTGTTGTACATTAAATATATTATTA [XGTACX_site7254]
The “gcPBM binding intensity (ln)” value of the first is lower: 6.3 for the first, 6.43 for the second.

Compared with “ACCCATAAGATAATTACACACAATACATCCCTATAT [CACACA_site5262]”, “AAGTATAACCTTTATAATAATGACATGACCGATTTT [CACACA_negctrl_site395]” is lower in “gcPBM binding intensity (ln)” value: 6.79 for the first, 6.04 for the second.

Compared with “AAGCATATTATAAACACACACTGTATAAAGATATAT [CACACA_site6277]”, “ATATAACGAATAATTACACACTATAAAAAAAGATCT [CACACA_site2862]” is lower in “gcPBM binding intensity (ln)” value: 6.75 for the first, 6.63 for the second.

Going from “TATAACCGAATGTGTACACAAAATAATGTTATATAT [CACACA_site5627]” to “ATAATACGAATTTGTAGTACATTTATAATAACATGA [XGTACX_site2614]”, the “gcPBM binding intensity (ln)” value falls from 7.77 to 6.26.

Compared with “TTGATTATAATTAGTACACACAAAATACATGCGGGG [CACACA_site2277]”, “AAATATATAATACATATGTAATATGCATATATATAT [GTGCAC_negctrl_site450]” is higher in “gcPBM binding intensity (ln)” value: 7.34 for the first, 8.8 for the second.

Going from “TGAATGTAAGAAAATACACACTAGTATAGTAACACC [CACACA_site5131]” to “TTTTTATTACTTCTCTGTACTCAGGAAAATAAATAT [XGTACX_site2092]”, the “gcPBM binding intensity (ln)” value falls from 7.02 to 6.13.

First: CCTCTTTATTTTAATTGTACATTTTTGTAGGTTTTT [XGTACX_site7130]
Second: TCCTTTTTTTTGTAATGTACTTAGTTTGGTTATATG [XGTACX_site8208]
The “gcPBM binding intensity (ln)” value of the first is lower: 6.82 for the first, 6.88 for the second.

First: ATGTATATATATATATGTACTAATTAGTAATTTACG [XGTACX_site6276]
Second: AAAACAAACCCATTTACACACATAAATAAATCAATT [CACACA_site6126]
The “gcPBM binding intensity (ln)” value of the first is higher: 6.96 for the first, 6.49 for the second.

Compared with “TAAAATAAAACAAACACACACACACCCCCACAAAAA [CACACA_site3850]”, “TATTTACATGTAAAAGGTACACACATTATATATACA [XGTACX_site2157]” is lower in “gcPBM binding intensity (ln)” value: 8.56 for the first, 6.82 for the second.

First: ATACACTTTTATATATCAATACATTATGTATTAAGT [CACACA_negctrl_site421]
Second: TTTATTATTTTTTGTAGTACTTTATATAAAAGTTCT [XGTACX_site4494]
The “gcPBM binding intensity (ln)” value of the first is lower: 6.84 for the first, 6.86 for the second.

Compared with “AAAAAGAAGATATATACACACCAAAAAAAAAAAAAA [CACACA_site7471]”, “TAAGGAAAAAGAAAAAGTACATTATATAATAAATAG [XGTACX_site3282]” is higher in “gcPBM binding intensity (ln)” value: 6.24 for the first, 6.72 for the second.

Compared with “AAAAAAAATAAAATGAATAAATAAGAATTACATATT [CACACA_negctrl_site863]”, “CAAATATATGTTTTCACACACAAAAGAAATGAAACC [CACACA_site2162]” is higher in “gcPBM binding intensity (ln)” value: 6.16 for the first, 6.44 for the second.

Going from “AATATATATATACATACATGCATACATATATATATA [TGCATGCA_site784]” to “GGATAGATCATTTACACACACAAAAAAAAAAAAAAA [CACACA_site2139]”, the “gcPBM binding intensity (ln)” value falls from 8.99 to 6.41.

Going from “ATAATATATTATTATAGTACTTTATTTTATTTTATG [XGTACX_site2387]” to “AATATATTTATATAGTGTACATTTTTTATATATGTA [XGTACX_site8142]”, the “gcPBM binding intensity (ln)” value falls from 6.65 to 6.48.

First: TATTAATTTTTATTATGTACATAAATAATTTATATT [XGTACX_site5456]
Second: TTGTATAAATATGTATGTATATAATATATGTAAAGA [TGCATGCA_negctrl_site93]
The “gcPBM binding intensity (ln)” value of the first is lower: 6.03 for the first, 6.73 for the second.

Compared with “CACATACACATACACATACACACGCATAGAAACATA [CACACA_site2136]”, “AAATCGTGTACATTGACACACATAATTTTTTTTATA [CACACA_site2463]” is lower in “gcPBM binding intensity (ln)” value: 8.06 for the first, 6.28 for the second.

Compared with “ATATGATGTAAAAGCACACATATATATATATATATA [CACACA_site4018]”, “TACTATAAAATGGAATGTACACATAAATATATCTAA [XGTACX_site6137]” is lower in “gcPBM binding intensity (ln)” value: 9.49 for the first, 6.51 for the second.

Going from “GTTTATAACTATGTGTGTACACATTAATCGTTTTTC [XGTACX_site4364]” to “TTCAGCATAAACACTTGTACATATATACTAAAAATT [XGTACX_site7272]”, the “gcPBM binding intensity (ln)” value falls from 7.18 to 6.31.

Going from “AAAAAAAAAAAACACACACACACACCGAAATATATA [CACACA_site4261]” to “AATTTTTTTTTTTTTTTTTCTTTTGTAATAAACCAT [XGTACX_negctrl_site334]”, the “gcPBM binding intensity (ln)” value falls from 6.74 to 6.1.

Compared with “ATTATATTTTTAAGTACACACATATAAATAAATATA [CACACA_site7682]”, “TATTAATTATTTTACTGTACTAATAATACTTTTATT [XGTACX_site2179]” is higher in “gcPBM binding intensity (ln)” value: 6.45 for the first, 6.48 for the second.

Compared with “ATTATGTGAGGTAACTAAATATGTACGTAACGAAGA [CACACA_negctrl_site1400]”, “ATATATATATATGTGTGTACTTAAAAATATAATGCA [XGTACX_site7753]” is higher in “gcPBM binding intensity (ln)” value: 7.04 for the first, 8.96 for the second.

Compared with “TAATGTATAATTAATCGTACATTAGATTGTTGTGTT [XGTACX_site52]”, “ATTTCCCCAACGTGGGTGCATATATTTATGTGTGAA [GTGCAC_site9439]” is higher in “gcPBM binding intensity (ln)” value: 6.27 for the first, 8.97 for the second.

Going from “CGTTGTAGGGAATGTAGTACAGTTATTATTTTATTA [XGTACX_site2429]” to “TATATATATAAATACACACACACACCGATATATATA [CACACA_site5408]”, the “gcPBM binding intensity (ln)” value rises from 6.22 to 7.37.

First: TCATACATTTTCAGCCTGCACTTATATTTAATAATA [GTGCAC_site9863]
Second: ATATATATATATTATACACACGCCGAAAAAATAAAA [CACACA_site1551]
The “gcPBM binding intensity (ln)” value of the first is lower: 7.25 for the first, 8.36 for the second.

Compared with “TTTATTTTATCTAAAAGTACTTAAATTAGTGTATTT [XGTACX_site5696]”, “TTACGAAAAAACAAGAGTACATGATGTTATAAAATA [XGTACX_site1412]” is higher in “gcPBM binding intensity (ln)” value: 6.18 for the first, 6.52 for the second.

Compared with “TATCAAATCCAAAGGGGTACATTTTGTTGTCCTAAT [XGTACX_site5575]”, “TAGCTCGTTCGGAGCACACACATATAAATAAATATA [CACACA_site7002]” is higher in “gcPBM binding intensity (ln)” value: 6.17 for the first, 6.63 for the second.

First: AATACTCTATTTTATAGTACATATATTATTAATCAC [XGTACX_site6622]
Second: GAAAAAAAAAAAAATACACACAAATTGGTATATAAT [CACACA_site4369]
The “gcPBM binding intensity (ln)” value of the first is higher: 6.37 for the first, 6.13 for the second.

Compared with “TAGGGATTATACCACACACACATACCCATAAATATA [CACACA_site5719]”, “ATAGACAGCGCACAAACACACAAACACGCACGCACA [CACACA_site6349]” is higher in “gcPBM binding intensity (ln)” value: 6.64 for the first, 8.06 for the second.

Compared with “TTTTTACTAATAAGATGTACATATATCCTAAGCATA [XGTACX_site251]”, “TTTCGTAAACAAATTTGTACGTACAAATTTATAAAT [XGTACX_site8175]” is higher in “gcPBM binding intensity (ln)” value: 6.42 for the first, 6.73 for the second.

Compared with “ATAATATAATAAACGTGTACACAATTAAATTATTAT [XGTACX_site3491]”, “TCTTTTATTAGTAAAAGTACTTATATAAATATTATA [XGTACX_site5099]” is lower in “gcPBM binding intensity (ln)” value: 6.5 for the first, 6.27 for the second.
